# Measurements: the supplement of paper PMC10369915
# The list shows a part of the results. Cut-off read from the data, not from the text of the source: active = 3.2 or more and inactive = the rest. Only a few entries rise above the background.
# Biological target: SHP2 C-SH2 domain E139D
# Assay: enrichment score (SH2-bound / input frequency) (ratio); bacterial display of known human phosphotyrosine sites (pTyr-Var adds point mutants) read by sequencing; higher = stronger binding; tyrosines were phosphorylated by kinases first
# Conditions: peptide library: pTyr-Var
# 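Note: displayed peptides selected on beads carrying the immobilized SH2 domain, with library peptides lacking any tyrosine serving as negative controls.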
row,Binder,enrichment score
1,AEEPIYIIVPA [BMXtide_2014],inactive: 1.64
2,ARDVIYIIIPA [FRKtide_2014],active: 6.7
3,ADEQIYWQIAA [CSKtide_2014],inactive: 0.766
4,ADPQEYIPLPA [JAKtide_2014],inactive: 0.59
5,AHPIIYEIIEA [PYKtide_E_2014],inactive: 1.74
6,LRVGFYESDVM [A2M_Y708],inactive: 1.56
7,ATVQNYLPKCI [A2M_Y817_L815Q],inactive: 0.984
8,NGPDVYVLPLT [AATK_Y93],inactive: 0.784
9,NGPDVYVLPVT [AATK_Y93_L97V],inactive: 0.758
10,LGLTVYADCLA [ABCA4_Y2063],inactive: 0.965
11,LALTVYADCLA [ABCA4_Y2063_G2059A],inactive: 0.973
12,YETVKYFNNER [ABCB7_Y345],inactive: 0.822
13,YETVKYINNER [ABCB7_Y345_F346I],inactive: 0.816
14,FETVKYFNNER [ABCB7_Y345_YF],inactive: 0.826
15,GEIQEYGAPSD [ABCC1_Y1508],inactive: 0.476
16,EQQNMYRLKVL [ABCC6_Y372],inactive: 0.694
17,NQSVRYDSSLK [ABCC8_Y1353_L1349Q],inactive: 0.636
18,FSQQTYYRVSN [ABCD1_Y180],inactive: 0.814
19,SQETYYRVSNM [ABCD1_Y181_Q178E],inactive: 0.822

# Biological target: SHP2 C-SH2 domain wild-type
# Assay: as above
# Conditions: peptide library: pTyr-Var
row,Binder,enrichment score
1,AEEPIYIIVPA [BMXtide_2014],inactive: 1.64
2,ARDVIYIIIPA [FRKtide_2014],active: 5.36
3,ADEQIYWQIAA [CSKtide_2014],inactive: 0.836
4,ADPQEYIPLPA [JAKtide_2014],inactive: 0.619
5,AHPIIYEIIEA [PYKtide_E_2014],inactive: 1.52
6,LRVGFYESDVM [A2M_Y708],inactive: 1.39
7,ATVQNYLPKCI [A2M_Y817_L815Q],inactive: 0.815
8,NGPDVYVLPLT [AATK_Y93],inactive: 0.774
9,NGPDVYVLPVT [AATK_Y93_L97V],inactive: 0.619
10,LGLTVYADCLA [ABCA4_Y2063],inactive: 1.04
11,LALTVYADCLA [ABCA4_Y2063_G2059A],inactive: 1.16
12,YETVKYFNNER [ABCB7_Y345],inactive: 0.939
13,YETVKYINNER [ABCB7_Y345_F346I],inactive: 1.26
14,FETVKYFNNER [ABCB7_Y345_YF],inactive: 0.824
15,GEIQEYGAPSD [ABCC1_Y1508],inactive: 0.479
16,EQQNMYRLKVL [ABCC6_Y372],inactive: 0.684
17,NQSVRYDSSLK [ABCC8_Y1353_L1349Q],inactive: 0.393
18,FSQQTYYRVSN [ABCD1_Y180],inactive: 1.07
19,SQETYYRVSNM [ABCD1_Y181_Q178E],inactive: 1.05

# Biological target: SHP2 N-SH2 domain L43F
# Assay: as above
# Conditions: peptide library: pTyr-Var
row,Binder,enrichment score
1,AEEPIYIIVPA [BMXtide_2014],inactive: 1.46
2,ARDVIYIIIPA [FRKtide_2014],active: 5.79
3,ADEQIYWQIAA [CSKtide_2014],inactive: 0.712
4,ADPQEYIPLPA [JAKtide_2014],inactive: 0.669
5,AHPIIYEIIEA [PYKtide_E_2014],inactive: 2.02
6,LRVGFYESDVM [A2M_Y708],inactive: 1.89
7,ATVQNYLPKCI [A2M_Y817_L815Q],inactive: 0.74
8,NGPDVYVLPLT [AATK_Y93],inactive: 0.773
9,NGPDVYVLPVT [AATK_Y93_L97V],inactive: 0.73
10,LGLTVYADCLA [ABCA4_Y2063],inactive: 0.922
11,LALTVYADCLA [ABCA4_Y2063_G2059A],inactive: 0.989
12,YETVKYFNNER [ABCB7_Y345],inactive: 0.85
13,YETVKYINNER [ABCB7_Y345_F346I],inactive: 0.702
14,FETVKYFNNER [ABCB7_Y345_YF],inactive: 0.887
15,GEIQEYGAPSD [ABCC1_Y1508],inactive: 0.475
16,EQQNMYRLKVL [ABCC6_Y372],inactive: 0.693
17,NQSVRYDSSLK [ABCC8_Y1353_L1349Q],inactive: 0.594
18,FSQQTYYRVSN [ABCD1_Y180],inactive: 1.51
19,SQETYYRVSNM [ABCD1_Y181_Q178E],inactive: 0.912

# Biological target: SHP2 N-SH2 domain T42A
# Assay: as above
# Conditions: peptide library: pTyr-Var
row,Binder,enrichment score
1,AEEPIYIIVPA [BMXtide_2014],inactive: 1.56
2,ARDVIYIIIPA [FRKtide_2014],active: 5.37
3,ADEQIYWQIAA [CSKtide_2014],inactive: 0.734
4,ADPQEYIPLPA [JAKtide_2014],inactive: 0.536
5,AHPIIYEIIEA [PYKtide_E_2014],inactive: 1.71
6,LRVGFYESDVM [A2M_Y708],inactive: 1.8
7,ATVQNYLPKCI [A2M_Y817_L815Q],inactive: 0.607
8,NGPDVYVLPLT [AATK_Y93],inactive: 0.634
9,NGPDVYVLPVT [AATK_Y93_L97V],inactive: 0.624
10,LGLTVYADCLA [ABCA4_Y2063],inactive: 1.26
11,LALTVYADCLA [ABCA4_Y2063_G2059A],inactive: 1.6
12,YETVKYFNNER [ABCB7_Y345],inactive: 1.22
13,YETVKYINNER [ABCB7_Y345_F346I],inactive: 2.67
14,FETVKYFNNER [ABCB7_Y345_YF],inactive: 0.898
15,GEIQEYGAPSD [ABCC1_Y1508],inactive: 0.433
16,EQQNMYRLKVL [ABCC6_Y372],inactive: 0.666
17,NQSVRYDSSLK [ABCC8_Y1353_L1349Q],inactive: 0.533
18,FSQQTYYRVSN [ABCD1_Y180],inactive: 0.978
19,SQETYYRVSNM [ABCD1_Y181_Q178E],inactive: 0.675

# Biological target: SHP2 N-SH2 domain T52S
# Assay: as above
# Conditions: peptide library: pTyr-Var
row,Binder,enrichment score
1,AEEPIYIIVPA [BMXtide_2014],inactive: 1.88
2,ARDVIYIIIPA [FRKtide_2014],active: 6.01
3,ADEQIYWQIAA [CSKtide_2014],inactive: 0.701
4,ADPQEYIPLPA [JAKtide_2014],inactive: 0.644
5,AHPIIYEIIEA [PYKtide_E_2014],inactive: 1.72
6,LRVGFYESDVM [A2M_Y708],inactive: 2.1
7,ATVQNYLPKCI [A2M_Y817_L815Q],inactive: 0.704
8,NGPDVYVLPLT [AATK_Y93],inactive: 0.627
9,NGPDVYVLPVT [AATK_Y93_L97V],inactive: 0.646
10,LGLTVYADCLA [ABCA4_Y2063],inactive: 0.879
11,LALTVYADCLA [ABCA4_Y2063_G2059A],inactive: 0.966
12,YETVKYFNNER [ABCB7_Y345],inactive: 0.964
13,YETVKYINNER [ABCB7_Y345_F346I],inactive: 0.798
14,FETVKYFNNER [ABCB7_Y345_YF],inactive: 0.761
15,GEIQEYGAPSD [ABCC1_Y1508],inactive: 0.459
16,EQQNMYRLKVL [ABCC6_Y372],inactive: 0.694
17,NQSVRYDSSLK [ABCC8_Y1353_L1349Q],inactive: 0.665
18,FSQQTYYRVSN [ABCD1_Y180],inactive: 0.866
19,SQETYYRVSNM [ABCD1_Y181_Q178E],inactive: 0.932

# Biological target: SHP2 N-SH2 domain wild-type
# Assay: as above
# Conditions: peptide library: pTyr-Var
row,Binder,enrichment score
1,AEEPIYIIVPA [BMXtide_2014],inactive: 1.44
2,ARDVIYIIIPA [FRKtide_2014],active: 5.23
3,ADEQIYWQIAA [CSKtide_2014],inactive: 0.992
4,ADPQEYIPLPA [JAKtide_2014],inactive: 0.716
5,AHPIIYEIIEA [PYKtide_E_2014],inactive: 2.19
6,LRVGFYESDVM [A2M_Y708],inactive: 1.74
7,ATVQNYLPKCI [A2M_Y817_L815Q],inactive: 0.934
8,NGPDVYVLPLT [AATK_Y93],inactive: 0.68
9,NGPDVYVLPVT [AATK_Y93_L97V],inactive: 0.675
10,LGLTVYADCLA [ABCA4_Y2063],inactive: 1.2
11,LALTVYADCLA [ABCA4_Y2063_G2059A],inactive: 1.33
12,YETVKYFNNER [ABCB7_Y345],inactive: 0.727
13,YETVKYINNER [ABCB7_Y345_F346I],inactive: 1.08
14,FETVKYFNNER [ABCB7_Y345_YF],inactive: 0.912
15,GEIQEYGAPSD [ABCC1_Y1508],inactive: 0.652
16,EQQNMYRLKVL [ABCC6_Y372],inactive: 0.778
17,NQSVRYDSSLK [ABCC8_Y1353_L1349Q],inactive: 0.666
18,FSQQTYYRVSN [ABCD1_Y180],inactive: 0.835
19,SQETYYRVSNM [ABCD1_Y181_Q178E],inactive: 1.13
